Experimental data taken from the supplement of paper PMC11417369.
The list shows a part of the results.

system: PfHDP1 homeodomain (GST-tagged); test: gcPBM binding intensity (ln(normalized median fluorescence intensity)); higher = stronger DNA binding
Summary of the method: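 Binding intensity is the highest Masliner-normalised natural-log median intensity over replicate spots in either probe orientation. To obtain it, GST-tagged P. falciparum DNA-binding domains made in E. coli were incubated for 1 h on an Agilent 4 × 180k array of primer-extended double-stranded 36-bp intergenic genomic probes plus negative controls. Detection used Alexa488 anti-GST antibody with scanning at 488 nm.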

Question: How did the “gcPBM binding intensity (ln)” value turn out when TATTTCACTTTTTGTCTGCACTAAAATTTTATGGTA was run?
Answer: Its value is 7.82.

Question: Which “gcPBM binding intensity (ln)” value does the source give for “GGTATATAAAAATATTGTACTTAAAAAAATATGTAT [XGTACX_site6253]” here?
Answer: The value was 6.19.

Question: “AAGTATAGTCTTACATATATATATATATATATATAT [GTGCAC_negctrl_site280]” was tested. Which “gcPBM binding intensity (ln)” value did it give?
Answer: Its value is 9.36.

Question: For “AAAAAAAAAAAAAACACACACATATATATAATATAT [CACACA_site3172]”, which “gcPBM binding intensity (ln)” value is on record?
Answer: The value was 6.55.

Question: Which “gcPBM binding intensity (ln)” value does the source give for “TTTTGACTAATATAATATGTTAAGAATTAATAAATA [XGTACX_negctrl_site35]” here?
Answer: Its value is 6.03.

Question: “CAAAAAGATAAGGTGTGTACGTATTATAATTTTAAA [XGTACX_site531]” was tested. Which “gcPBM binding intensity (ln)” value did it give?
Answer: Its value is 7.01.

Question: TGAAATGATCTTTAGTTGCACTTAAAAATATATATA was tested. Which “gcPBM binding intensity (ln)” value did it give?
Answer: Its value is 8.52.

Question: How did the “gcPBM binding intensity (ln)” value turn out when “ATTTAATTTTCCAAATGTACTTATATTTTTATGAAA [XGTACX_site6144]” was run?
Answer: Its value is 6.43.

Question: “TTAAAAATTATGGATACACACATATATATATATATT [CACACA_site2383]” was tested. Which “gcPBM binding intensity (ln)” value did it give?
Answer: The value was 6.51.

Question: With “GATATTAAAATATGTAGTACACATATTATATCATAT [XGTACX_site4167]” as the sequence, how does the “gcPBM binding intensity (ln)” value read?
Answer: Its value is 6.26.

Question: Which “gcPBM binding intensity (ln)” value does the source give for “ATAGTTCCTTTTAATACACACAAAAAAAAAAACATG [CACACA_site3415]” here?
Answer: Its value is 6.58.

Question: How did the “gcPBM binding intensity (ln)” value turn out when “TATAGGTAAATGGACACACACATATTTATATTTATA [CACACA_site7683]” was run?
Answer: The value was 6.61.

Question: With “TGTAGTCTGGAGAAGAGTACATAGTATCTGGTAACA [XGTACX_site4944]” as the sequence, how does the “gcPBM binding intensity (ln)” value read?
Answer: Its value is 6.52.

Question: “TATAATATAAGGATCACACACAAACAGACATATATA [CACACA_site557]” was tested. Which “gcPBM binding intensity (ln)” value did it give?
Answer: The value was 7.01.

Question: For “ATAGAAGCATCACACTGTACATGGATGAACAGAAAA [XGTACX_site7311]”, which “gcPBM binding intensity (ln)” value is on record?
Answer: The value was 6.14.

Question: How did the “gcPBM binding intensity (ln)” value turn out when “TAATGTTTTTATATCACACACAAATATTAAATGATT [CACACA_site543]” was run?
Answer: The value was 6.37.

Question: How did the “gcPBM binding intensity (ln)” value turn out when “TTATTAGGTGTATAATGTACATATAATATATATATA [XGTACX_site3398]” was run?
Answer: The value was 8.2.

Question: With “AAAAACAAAATATAATGTACACAATATATGTATATA [XGTACX_site2301]” as the sequence, how does the “gcPBM binding intensity (ln)” value read?
Answer: The value was 6.53.

Question: For “AAATATTACTACACTACATGCAGTTTTAGGTACACT [TGCATGCA_site42]”, which “gcPBM binding intensity (ln)” value is on record?
Answer: The value was 6.65.

Question: For “AATAAACATAAATACACACACAAAAAAAAAAACATA [CACACA_site4396]”, which “gcPBM binding intensity (ln)” value is on record?
Answer: The value was 6.9.

Question: For “TTTTTTTTTTTTTGATGTACTAAAAAAAATGAGCCT [XGTACX_site8535]”, which “gcPBM binding intensity (ln)” value is on record?
Answer: The value was 6.32.

Question: “CCAATACATAGAAACTGTACATTATGCATTATACAC [XGTACX_site3531]” was tested. Which “gcPBM binding intensity (ln)” value did it give?
Answer: The value was 6.98.

Question: How did the “gcPBM binding intensity (ln)” value turn out when “AATATCTAAATAAAGTGTACTTACCTTATTAATTAT [XGTACX_site2276]” was run?
Answer: The value was 6.05.

Question: How did the “gcPBM binding intensity (ln)” value turn out when “ATATATATAATGTGAAGTACATTTTGTTTACATATT [XGTACX_site8405]” was run?
Answer: Its value is 6.77.

Question: For “ATAATTTCTTTTACATGTACAAAATTTGCTTATATG [XGTACX_site5388]”, which “gcPBM binding intensity (ln)” value is on record?
Answer: Its value is 7.05.

Question: Which “gcPBM binding intensity (ln)” value does the source give for “TATATATATACATACATACACACATATATATATATA [CACACA_site4109]” here?
Answer: The value was 9.2.

Question: “TAATTTATGGAATATGTGCACTTGCTGATCACTTTT [GTGCAC_site9843]” was tested. Which “gcPBM binding intensity (ln)” value did it give?
Answer: Its value is 9.34.

Question: For “TTTATTAAATAATCTCTTTTTATTACATAATAATAA [XGTACX_negctrl_site382]”, which “gcPBM binding intensity (ln)” value is on record?
Answer: The value was 5.91.

Question: How did the “gcPBM binding intensity (ln)” value turn out when “TTTACACTTTCCAATAGTACATATTAGAATAATTCT [XGTACX_site7734]” was run?
Answer: The value was 6.53.

Question: Which “gcPBM binding intensity (ln)” value does the source give for “GGATTATTTATAGGAGTGCATACATATATATATATA [GTGCAC_site9454]” here?
Answer: The value was 9.37.

Question: For “ATTAGCTACAAACAAAGGCTACCTATAGCAAGAGGG [GTGCAC_negctrl_site33]”, which “gcPBM binding intensity (ln)” value is on record?
Answer: Its value is 6.56.

Question: “AATTTAATCCGTAATAAGAAAAGAAAAAAAAAAAGA [GTGCAC_negctrl_site129]” was tested. Which “gcPBM binding intensity (ln)” value did it give?
Answer: Its value is 6.48.

Question: Which “gcPBM binding intensity (ln)” value does the source give for “TTATATGTATATATAGTGCAGAACAAAAGATTATAT [GTGCAC_site9599]” here?
Answer: The value was 7.69.

Question: With “TTTTTGTTTCATAAATGTACAAAAACAAACATATTT [XGTACX_site5281]” as the sequence, how does the “gcPBM binding intensity (ln)” value read?
Answer: Its value is 6.45.

Question: With “ATTTTCCTATTTAGTAGTACTTTTTTCTTTTTTTAA [XGTACX_site5260]” as the sequence, how does the “gcPBM binding intensity (ln)” value read?
Answer: The value was 6.7.

Question: “TCGTCTCAATAATTATAATAAAAAAATTCCTAAGTC [CACACA_negctrl_site338]” was tested. Which “gcPBM binding intensity (ln)” value did it give?
Answer: Its value is 6.28.

Question: “ATTTTTTTTTTTTTTTGTACGAATAATATGTATGAA [XGTACX_site5318]” was tested. Which “gcPBM binding intensity (ln)” value did it give?
Answer: Its value is 6.38.

Question: With “TATAAAAAATATATATATAATATTATATATATATAT [TGCATGCA_negctrl_site260]” as the sequence, how does the “gcPBM binding intensity (ln)” value read?
Answer: The value was 8.83.

Question: “AAAGGAGGGAATTTTTCTAGGTGTGGAGTGCTACTC [XGTACX_negctrl_site63]” was tested. Which “gcPBM binding intensity (ln)” value did it give?
Answer: The value was 6.36.

Question: For “ATTATATTTATTAATATGTATATTTAATTATATTTA [XGTACX_negctrl_site376]”, which “gcPBM binding intensity (ln)” value is on record?
Answer: The value was 6.22.

Question: With “ATTATTGTTTATTGATTTTTGTTAAAATAGGAAATT [GTGCAC_negctrl_site181]” as the sequence, how does the “gcPBM binding intensity (ln)” value read?
Answer: Its value is 6.44.

Question: How did the “gcPBM binding intensity (ln)” value turn out when “TTTCATCTCGTCATTTCTTATATAACTATTTTATAC [CACACA_negctrl_site813]” was run?
Answer: Its value is 6.88.

Question: “TTCTTTATTATATGCACACGTACATAAAATATATAT [CACACA_site5157]” was tested. Which “gcPBM binding intensity (ln)” value did it give?
Answer: Its value is 9.96.

Question: With “AAGTGTAAAAGTTACACACACAAACTTGTCATTTTT [CACACA_site4614]” as the sequence, how does the “gcPBM binding intensity (ln)” value read?
Answer: The value was 6.32.

Question: With “CAAATTTTTTATTAAACACACAAACATATATATATA [CACACA_site5122]” as the sequence, how does the “gcPBM binding intensity (ln)” value read?
Answer: Its value is 8.88.

Question: How did the “gcPBM binding intensity (ln)” value turn out when “CTTATAAATAAAAGAAGTACATGTTAGTTCAAGTTA [XGTACX_site4183]” was run?
Answer: The value was 6.37.

Question: With “TTGAAGAAAAAAAAATGTACATAAAAAATATATATG [XGTACX_site428]” as the sequence, how does the “gcPBM binding intensity (ln)” value read?
Answer: Its value is 6.79.

Question: “AAGAAAAGAAACAAAAAAAAAAAGAAATAAAAGGAA [TGCATGCA_negctrl_site171]” was tested. Which “gcPBM binding intensity (ln)” value did it give?
Answer: Its value is 6.24.

Question: Which “gcPBM binding intensity (ln)” value does the source give for “TTATTATCATCAAATCAAAAAATTCTTTTACCTGTT [CACACA_negctrl_site1348]” here?
Answer: Its value is 5.83.

Question: For “TATATATATATATGTAGTACCTATAATATTAAATAC [XGTACX_site6118]”, which “gcPBM binding intensity (ln)” value is on record?
Answer: Its value is 9.16.

Question: How did the “gcPBM binding intensity (ln)” value turn out when “TATGAATGGTTAAGTACACACATATTAATATAGGTA [CACACA_site7606]” was run?
Answer: The value was 6.56.

Question: “AATTTTTTTTTTTTTTTTTTTTATATATGTGTGTGT [XGTACX_negctrl_site129]” was tested. Which “gcPBM binding intensity (ln)” value did it give?
Answer: The value was 6.26.

Question: How did the “gcPBM binding intensity (ln)” value turn out when “TATTTATGTTCATATAAACACACGTAAAATTCAAGG [CACACA_site1538]” was run?
Answer: Its value is 6.63.

Question: For “CATATTCATAAAAGTTGTACATGCAATTTTTTTTTT [XGTACX_site2261]”, which “gcPBM binding intensity (ln)” value is on record?
Answer: The value was 6.6.

Question: Which “gcPBM binding intensity (ln)” value does the source give for “TCAATAAAAAAAAACGCACACACAAATATATTCCAT [CACACA_site1223]” here?
Answer: Its value is 7.03.

Question: For “GTCCCTATAAGGGGAACACACATAAATGGATATATA [CACACA_site6612]”, which “gcPBM binding intensity (ln)” value is on record?
Answer: The value was 6.2.
